Hit rate of the full screen: of about 350,000 compounds, about 9,900 (2.8%) were called active. The inconclusive results got no clear call from the source; some entries with a clear call stand among them for comparison. The call rests on the fitted dose curve; in most records, active means well fitted activation curve with a large enough effect; inconclusive means small, poorly fitted or top-dose-only effect; inactive means no such curve, though single readings can be large or run the other way. Potencies of inconclusive entries are left out as doubtful fits.
Assay: A quantitative high throughput screen for small molecules that induce DNA re-replication in MCF 10a normal breast cells. Further: nearly all actives have a fitted effect of over 50% in size. On activity, positive = re-replication: % of control where 0% means no effect.
Conditions: MCF 10A DNA re-replication, Hoechst nuclear intensity, 48 h; activity, positive = re-replication: at 46.1 µM (top of the series)
Potency means the concentration at half of the fitted maximal effect; tags describe the fitted curve by direction and shape.

Compound	Potency	activity, positive = re-replication
CCc1[nH]nc2c1C(c1ccc(Br)s1)C(C#N)=C(N)O2 (stereo unspecified)	inconclusive [activator, single point]	–
Cn1nccc1C(=O)N1CCCC(C(=O)c2ccc(C(F)(F)F)cc2)C1 (stereo unspecified)	inconclusive [activator, partial curve, poor fit]	–
C[C@@H]1CC=C[C@H]2[C@H]1C(=O)N(Cc1ccccc1)[C@H]2c1ccc(C(F)(F)F)cc1	inconclusive [activator, single point]	–
CCc1cc(-c2n[nH]c(C)c2-c2ccccc2Cl)c(O)cc1OC	inconclusive [activator, partial curve, poor fit]	–
Fc1ccc(C(CCNCc2ccccn2)c2ccc(Cl)cc2)cc1 (stereo unspecified)	inconclusive [activator, single point]	–
O=C(NC(=S)NCCc1ccccc1)c1ccco1	–	inactive: -0.138%
CCOC(=O)c1c(NC(=O)CNC2CCCc3ccccc32)sc(C(N)=O)c1C (stereo unspecified)	active: 16.4 µM	–
COc1ccccc1C(CNC(=O)c1ccco1)N1CCCC1 (stereo unspecified)	–	inactive: 14.9%
O=C(CN1C(=O)c2ccccc2S1(=O)=O)c1ccc(Cl)cc1Cl	–	inactive: 9.96%
O=C(/C=C/c1ccc(F)cc1)Nc1ccc(S(=O)(=O)N2CCOCC2)cc1	–	inactive: 2.41%
Cc1cc(S(=O)(=O)N(Cc2ccccn2)Cc2ccco2)ccc1-n1cnnn1	inconclusive [activator, single point]	–
Brc1ccccc1C1CC(c2ccccc2)=Nc2ccccc2N1 (stereo unspecified)	active: 23.1 µM	–
CN1C(=O)C(=O)/C(=C(/O)c2ccc(Br)cc2)C1c1cccc([N+](=O)[O-])c1 (stereo unspecified)	inconclusive [activator, single point]	–
O=C(N/N=C/c1ccccc1OCC(=O)N1CCCC1)C(=O)Nc1ccccc1F	inconclusive [activator, partial curve, poor fit]	–
COc1ccc2c(Cl)c(-c3nnc(SCC(=O)c4ccccc4)n3C)sc2c1	inconclusive [activator, single point]	–
Cc1ccc(OCCCCn2cnc3ccccc32)cc1	–	inactive: 7.75%
O=C(Cc1ccccc1)Nc1nonc1NC(=O)c1ccccc1	inconclusive [activator, single point]	–
CCn1c(SCc2ccc(Cl)cc2)nnc1-c1ccccc1	–	inactive: 1.52%
Cc1cccc(CN2C(=O)c3ccccc3Sc3ccc(C(=O)NCCN4CCOCC4)cc32)c1	inconclusive [activator, partial curve, poor fit]	–
O=C(CNC(=O)C1CCCCC1)OCC(=O)c1cccc(Cl)c1	–	inactive: 3.45%
O=C(Cc1ccccc1)Nn1c(-c2ccccc2)nc2ccccc2c1=O	–	inactive: 25%
Cc1ccc2nc(Cl)c3cc(C(=O)NCCCN4CCCC4)sc3c2c1	inconclusive [activator, partial curve]	–
O=C(Nc1cccc(C(=O)O)c1)Nc1ccc2c(c1)OCO2	–	inactive: -3.18%

Compound	Potency	activity, positive = re-replication
O=C1CC(c2ccco2)Cc2nc(N3CCc4ccccc4C3)ncc21 (stereo unspecified)	inconclusive [activator, partial curve]	–
c1ccc(-c2nc(-c3cccs3)[nH]c2-c2ccccc2)cc1	inconclusive [activator, single point]	–
CCCCNCc1ccc(OCc2ccc(Cl)nc2)c(OC)c1	inconclusive [activator, single point]	–
C=C(C)CN(CC)C(=O)CSc1ccc(S(=O)(=O)N2CCN(Cc3ccccc3)CC2)cn1	inconclusive [activator, single point]	–
CCn1cnc2sc(C(=O)O)c(C)c2c1=O	–	inactive: -2.5%
COc1ccccc1N1CCN(C(=O)C2CCN(C(=O)c3ccc(C(C)(C)C)cc3)CC2)CC1	inconclusive [activator, single point]	–
COc1cccc(N2CCN(C(=S)Nc3ccccc3OC)CC2)c1	–	inactive: 0.855%
FC(F)(F)c1cccc(-c2cc3ccccc3nc2N2CCCC2)c1	inconclusive [activator, single point]	–
CC1CCc2c(sc(NC(=O)Cn3nc(C(=O)O)c4ccccc4c3=O)c2C#N)C1 (stereo unspecified)	inconclusive [activator, partial curve, poor fit]	–
CC(=O)N1CCC(=NNc2nc3ccccc3s2)CC1	inconclusive [activator, single point]	–
COc1cc(O)c(CC=C(C)C)c(O)c1C(=O)CCc1ccc(O)cc1	active: 6.51 µM	–
CSc1nccc(-c2c(-c3ccc(Cl)cc3)noc2C)n1	inconclusive [activator, partial curve, poor fit]	–
COCCNC(=O)/C(C#N)=C\c1ccc(CNC(=O)C(=O)Nc2ccc(C)c(C)c2)o1	inconclusive [activator, single point]	–
CCN(CC)c1cc(C)c2cc(NC(=O)c3cccs3)ccc2n1	inconclusive [activator, single point]	–
COC(=O)c1ccccc1NC(=O)COC(=O)/C=C/c1ccco1	–	inactive: -1.37%
CCCOc1ccc(N2C(=O)C/C(=C\c3ccccc3)C2=O)cc1	–	inactive: 2.38%
O=C(NC1=NCCS1)c1ccccc1Br	inconclusive [activator, single point]	–
COc1cc(CNC2CCCCCCC2)ccc1OCC(N)=O	–	inactive: 18.8%
Cc1cc(NC(=O)CSc2nc3c(cnn3-c3cccc(Cl)c3)c(=O)[nH]2)no1	inconclusive [activator, partial curve]	–
COc1cc(/C=C/C(=O)N2CCCc3ccccc32)cc(OC)c1OC	inconclusive [activator, partial curve, poor fit]	–
CN(C)c1nc(OCCOC(=O)Nc2ccc(Cl)cc2Cl)nc(N(C)C)n1	–	inactive: 24.9%
Clc1ccc(Nc2nc(NCCN3CCOCC3)nc(N3CCOCC3)n2)cc1	inconclusive [activator, partial curve, poor fit]	–
CCC(C)(C)NC(=O)C1CCCN(S(=O)(=O)c2ccc3c(c2)CC(C)N3C(=O)C2CC2)C1 (stereo unspecified)	inconclusive [activator, partial curve, poor fit]	–

Source: PubChem BioAssay AID624296 (National Center for Advancing Translational Sciences (NCATS), 2012)
